From PubChem BioAssay AID1963576 (National Center for Advancing Translational Sciences (NCATS), 2024)
In all, about 46,000 compounds went through this assay and about 60 (0.1%) were called active. Not shown: some 3% with an inconclusive outcome. The call rests on the fitted dose curve; in most records, active means well fitted inhibition curve with a large enough effect; inconclusive means small, poorly fitted or top-dose-only effect; inactive means no such curve, though single readings can be large or run the other way. This is one part of the list.

Assay: Primary qHTS assay for Inhibitors of ovarian cancer metastasis using an organotypic tumor microenvironment (TME) model. Further: nearly all actives have a fitted effect of over 65% in size.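 On activity change, negative = inhibition: plate controls were DMSO wells for no effect and tomatine positive control wells for full effect.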
Conditions: SKOV3ip1-GFP adhesion/invasion on 3D omental model, fluorescence; series mostly up to 45.8 µM; activity change, negative = inhibition: at the top concentration
Summary of the method: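 qHTS, 4-pt dose (0.36-46 umol/L); SKOV3ip1-GFP, 1,200 cells/well, no FBS; primary omental fibroblast/mesothelial co-culture 48 h pre-grown; 2 h RT + 16 h 37 C; PBS wash, 4% PFA; GFP count 488/509 nm.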

Activity change, negative = inhibition, inactive:
Cc1cc(=O)n2[nH]c(NC(=O)c3cccc(Cl)c3)nc2n1 14.9%
COc1ccc(CNC(=O)Cn2ncc3c(=O)oc4ccc(C)cc4c32)c(OC)c1 12.2%
CC#C[C@]1(O)CC[C@H]2[C@@H]3CCC4=CC(=O)CCC4=C3[C@@H](c3ccc(N(C)C)cc3)C[C@@]21C 33.6%
CCCC(=O)Nc1nnc(SCc2cc(=O)n3cccc(C)c3n2)s1 9.81%
COc1ccc(-c2nc(CN3CCC(C(=O)NCc4ccc(F)cc4)CC3)c(C)o2)cc1OC -7.52%
COc1ccccc1CCNC(=O)CCCn1c(=O)c2cccn2c2cccnc21 -1.22%
Cc1c(C(=O)NCc2ccc(OC(C)C)cc2)sc2ncnc(N(C)C3CCCCC3)c12 -10.4%
Cc1ccc2[nH]c(CSc3nnc(NC(=O)COc4ccc(F)cc4)s3)cc(=O)c2c1 6.14%
Cc1ccccc1C(=O)n1nc(-c2ccco2)nc1NCc1cccs1 -4.54%
COc1ccc(CCC(=O)NC2CC(=O)N(c3ccccc3)C2)cc1 (stereo not given) 3.09%
O=C(NCC(c1ccc2c(c1)OCO2)N1CCN(c2ccccc2F)CC1)c1ccccc1F (stereo not given) -0.0113%
CCCN(CCC)CCNC(=O)c1nn(C)c2c1CS(=O)(=O)c1ccccc1-2 4.52%
COc1ccc(C2CC(=O)N(CC(=O)Nc3ccc(C(C)=O)cc3)c3ccccc3S2)cc1OC (stereo not given) 13.2%
CCOC(=O)c1c(C)oc2nc(C)nc(N3CCN(c4cccc(C(F)(F)F)c4)CC3)c12 2.11%
COc1ccc(CNC(=O)c2cc(-c3ccc(Cl)cc3)n[nH]2)cc1 7.07%
O=C(CCCCn1c(=O)c2ccccc2n(Cc2cccc(Cl)c2)c1=O)NCc1ccc2c(c1)OCO2 9.85%
O=S(=O)(NCCc1csc2nc(-c3ccc(Cl)cc3)nn12)c1ccc2c(c1)OCCO2 -2.4%
CCCn1c2ccccc2c2cnn(CC(=O)NCCCN(Cc3ccccc3)C(C)C)c(=O)c21 9.26%
CCCN(CCC)CCCNC(=O)c1cn(C)c2ccc(S(=O)(=O)N3CCOCC3)cc2c1=O -5.87%
CCC(C)NC(=O)CN1C(=O)c2cccnc2Oc2ccc(C)cc21 (stereo not given) 1.43%
CC(C)c1ccc(NC(=O)CN2C(=O)COc3ccc(S(=O)(=O)N4CCOCC4)cc32)cc1 8.03%
COC(=O)c1ccc2c(=O)n(CCCCCC(=O)NCc3ccc(OC)cc3)c(=O)[nH]c2c1 -9.65%
COc1ccc(Nc2cc(C(=O)NCCCN(C)C3CCCCC3)c3ccccc3n2)c(OC)c1 2.11%
COc1ccc2oc(=O)c(-c3nc(-c4ccc(C)c(C)c4)cs3)cc2c1 9%
CCC(Sc1nc2ncccc2o1)C(=O)Nc1cccc(C)c1 (stereo not given) 1.34%
Cc1ccc(C)c(NC(=O)c2ccc3c(c2)CCN3S(=O)(=O)c2ccccc2)c1 -14.9%
O=C(Nc1ccc(Cl)c(C(F)(F)F)c1)C(Cc1ccccc1)NS(=O)(=O)c1cccc2nsnc12 (stereo not given) 1.62%
Cc1cc(C)cc(OCCSc2nc(-c3cccs3)nc3cc(=O)[nH]n23)c1 -26%
COc1ccc(NC(=O)C2CCCN(S(=O)(=O)c3c(C)[nH]c(=O)[nH]c3=O)C2)cc1Cl (stereo not given) -1.85%
Cc1nn(-c2ccc(N3CCOCC3)nn2)c(C)c1CCC(=O)Nc1ccc(F)cc1F -9.69%
O=C(CSc1nccn1Cc1ccc(Cl)cc1)Nc1ccc2c(c1)OCO2 -1.22%
O=C(CN1N=C(c2ccccc2)CCC1=O)NCc1ccc(F)cc1Cl -22.7%
COc1cccc(-n2cc(C(=O)NCc3ccc(C)cc3)c3ccccc3c2=O)c1 0.615%
CCc1ccc(C2c3c(-c4ccccc4)n[nH]c3C(=O)N2c2ccc(C(=O)O)cc2)cc1 (stereo not given) 74.6%
CCc1cccc(CC)c1NC(=O)N1Cc2[nH]nc(NC(=O)c3ccc(N4CCN(C)CC4)cc3)c2C1 -40.2%
CCSc1nnc2c(n1)OC(c1ccc(C)s1)Nc1ccccc1-2 (stereo not given) 23.7%
CCOc1ccccc1NC(=O)CSc1ncc(S(=O)(=O)c2ccc(C)c(C)c2)c(N)n1 8.83%
CNC(=O)c1c(NC(=O)Cc2coc3ccc(C)cc23)sc2c1CCCC2 -4.45%
COc1ccc(-c2noc(-c3ccc(NCC4CCCO4)c([N+](=O)[O-])c3)n2)cc1 (stereo not given) 18.9%
O=C(CSc1nc2c([nH]c3ccccc32)c(=O)n1-c1ccccc1)Nc1ccc(Cl)c(Cl)c1 5.02%
CCc1nn(CC(=O)Nc2c(C)cccc2C)c(=O)c2cc3sccc3n12 1.57%
COc1ccc(-c2cc(OC(=O)c3cccc(Cl)c3)c3c(C)oc(C)c3c(=O)c2)cc1 -6.61%
COc1cc(NC(=O)N2CCC3(CC2)Nc2ccccc2-n2cccc23)cc(OC)c1OC 4.52%
CCOc1ccc(NC(=O)Cn2nnc(C(=O)NCCc3ccccc3)c2N)cc1 4.61%
Cc1cn2c(=O)c(S(=O)(=O)N3CCN(c4cc(Cl)ccc4C)CC3)c(C)nc2s1 9.1%
O=C(NCCc1ccc(Cl)cc1)C1COc2ccccc2C1 (stereo not given) -3.57%
Cc1nc(-c2ccc(S(=O)(=O)N3CCN(c4cc(Cl)ccc4C)CC3)cc2)co1 -2.99%
O=C(c1ccc(F)cc1)n1nc(-c2cccnc2)nc1NCc1ccc(F)cc1 9.76%
Cc1ccc2nc(-c3cccnc3)c(Nc3ccc(C(C)C)cc3)n2c1 -1.66%
O=C(COc1ccc2ccccc2c1)NC1CC(=O)N(c2ccccc2)C1 (stereo not given) -0.582%
Cc1ccc(S(=O)(=O)Nc2nc3ccccc3nc2Nc2ccc3nsnc3c2)cc1 -10.3% [at 23.2 µM]
O=C(CSc1c2c(nc3cc(Cl)ccc13)CCCC2)N1CCN(c2ccccc2F)CC1 -28.1%
CCOC(=O)c1noc2ncn(CC(=O)Nc3cccc(Cl)c3)c(=O)c12 12.5%
COc1ccccc1NC(=O)CSc1oc(-c2ccccc2)nc1S(=O)(=O)c1ccc(C)cc1 -0.775%
COc1ccc2c(Sc3ccc(Cl)cc3)c(C(=O)N3CCC(C)CC3)[nH]c2c1 -16.4%
CCNC(=O)CC1C(=O)N(c2ccc(C)cc2)C(=O)N1CCC(C)C (stereo not given) 0.627%
O=C(Cn1c(=O)oc2cc(S(=O)(=O)N3CCCC3)ccc21)Nc1ccc(F)cc1F -19.5%
Cc1ccc(S(=O)(=O)c2nc(-c3cccs3)oc2SC(C)C)cc1 2.46%
CCOC(=O)c1ccc(NC(=O)c2cn(-c3ccccc3)nc2-c2ccc(OC)c(OC)c2)cc1 4.39%
O=C(Nc1cccc(-c2nc3cccnc3s2)c1)c1cccc(Br)c1 -18.4%
CCOC(=O)C1=C(N)Oc2ccc(Br)cc2C1C(C#N)C(=O)OCC (stereo not given) -12.1%
CCOC(=O)c1nc(Nc2ccc(C(=O)OC)cc2)c2ccccc2n1 -4.43%
O=C(c1cccc(Cl)c1)n1nc(-c2cccnc2)nc1NCc1ccccc1 -3.27%
CCCCOc1cccc(NC(=O)c2cccc(C(=O)Nc3cccc(OCCCC)c3)c2)c1 -14.4%
CCOC(=O)c1c(C)oc2nc(C)nc(NCc3cccc(Cl)c3)c12 0.162%
Cc1ccc(C(=O)Nc2nc(-c3nnn(-c4cccc(C(F)(F)F)c4)c3C)ns2)cc1 -8.63%
CCc1ccc(-n2c(=O)c3cccnc3n2CC(=O)Nc2cc(OC)ccc2OC)cc1 -2.64%
CSCCC(NS(=O)(=O)c1ccc2c(c1)oc(=O)n2C)C(=O)N1CCN(c2ccc(C(C)=O)cc2)CC1 (stereo not given) 1.97%
O=c1c(S(=O)(=O)c2cccc(Cl)c2)cn(Cc2ccccc2)c2cc(N3CCCCC3)c(F)cc12 -10.2%
CCN(CC)S(=O)(=O)c1ccc2[nH]cc(C(=O)NCCc3ccccc3)c(=O)c2c1 -10.7%
CCOC(=O)c1c(S(=O)(=O)NCC(=O)Nc2ccc(F)cc2C)c(C)n(C)c1C 4.8%
Cc1ccc(CCNC(=O)c2cn(C)c3ccc(S(=O)(=O)N4CCC(C)CC4)cc3c2=O)cc1 -10.8%
CCOc1ccc(-n2c(=O)c3c(C)c(C)sc3n(CC(=O)N3CCC(C)CC3)c2=O)cc1 -2.45%
Cc1cccc(CNC(=O)c2ccc(C)c(-n3c(C)nc4cccnc43)c2)c1 4.5%
O=C(NCc1ccccc1Cl)c1ccc(Cn2c(=O)c3cccn3c3cccnc32)cc1 -6.18%
COc1cccc(-n2cc(C(=O)OCc3ccc(Cl)cc3)c3ccccc3c2=O)c1 -6.53%
COc1cc(OC)c(NC(=O)c2c(C)oc3nc(C)nc(N4CCOCC4)c23)cc1Cl -14.3%
CCn1ccc2cc(S(=O)(=O)N3CCC(C(=O)NCCc4ccccc4)CC3)ccc21 0.17%

outcome, inactive:
CC1=Nc2cc(C(=O)N3CCCCC3)ccc2Sc2ccc(C)cc21
CCOC(=O)c1c(NC(=O)/C=C/c2ccc(Cl)cc2)sc2c1CCC(C)C2 (stereo not given)
O=C(NCc1nc(-c2ccccc2)no1)c1ccco1
COc1cc(Cl)c(C)cc1NC(=O)c1nn(C)c2c1CSc1ccccc1-2
CCn1cc(C(=O)NCCc2ccccc2)c(=O)c2cc(S(=O)(=O)N3CCc4ccccc4C3)ccc21
COc1ccc(CCNc2nc(SCc3cccc(F)c3)nc3ccccc23)cc1OC
COc1ccc(-c2cc(C)no2)cc1S(=O)(=O)N1CCOc2ccc(Cl)cc21
CCc1cc2c(cc3c(=O)n(CC(=O)NCCc4ccccc4)ncn32)s1
COc1ccc(CCNC(=O)Cn2cc(S(=O)(=O)Cc3ccccc3Cl)c3ccccc32)cc1OC
O=C(CSc1nnc(-c2ccccc2F)o1)Nc1ccccc1Cl
N#Cc1ccccc1NC(=O)C(=O)NCCc1csc(-c2ccc(F)cc2)n1
CCc1ccccc1NC(=O)c1ccc(=O)n(Cc2ccc(F)cc2)c1
COc1cccc(C(=O)NCC(=O)OCc2cc(=O)n3ccsc3n2)c1
COc1ccccc1NC(=O)CN1C(=O)CSc2ccc(S(=O)(=O)N3CCCC3)cc21
COc1cc(OC)cc(-c2nc3nc(C)c(CCC(=O)NCCC(C)C)c(C)n3n2)c1
Cc1cc(C)c(NC(=O)CCCn2c(C)c3cnn(-c4ccccc4)c(=O)c3c2C)c(C)c1
CC(C)CC(=O)Nc1nnc(SCc2cc(=O)n3ccccc3n2)s1
